Data: publication PMC4336329 (PLoS ONE, 2015)
About 14,000 (4.5%) of roughly 310,000 compounds showed an effect of 50% or more. Effects have a minus sign here. The list shows a part of the results. Where a SMILES comes first, the peptide text is derived from it. [ ]: non-standard residue; d: D form. pGlu = O=C1CC[C@@H](C(=O)O)N1; Thz = O=C(O)[C@@H]1CSCN1

Molecular target: human ether-à-go-go-related gene (hERG) potassium channel (human, UniProt Q12809)
Assay: primary screen, population patch clamp on CHO cells stably expressing hERG
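Further: peak tail current of the secondary pulse compared with the same well before compound.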

human ether-à-go-go-related gene (hERG) potassium channel, sequence (Q12809 whole entry, looked up): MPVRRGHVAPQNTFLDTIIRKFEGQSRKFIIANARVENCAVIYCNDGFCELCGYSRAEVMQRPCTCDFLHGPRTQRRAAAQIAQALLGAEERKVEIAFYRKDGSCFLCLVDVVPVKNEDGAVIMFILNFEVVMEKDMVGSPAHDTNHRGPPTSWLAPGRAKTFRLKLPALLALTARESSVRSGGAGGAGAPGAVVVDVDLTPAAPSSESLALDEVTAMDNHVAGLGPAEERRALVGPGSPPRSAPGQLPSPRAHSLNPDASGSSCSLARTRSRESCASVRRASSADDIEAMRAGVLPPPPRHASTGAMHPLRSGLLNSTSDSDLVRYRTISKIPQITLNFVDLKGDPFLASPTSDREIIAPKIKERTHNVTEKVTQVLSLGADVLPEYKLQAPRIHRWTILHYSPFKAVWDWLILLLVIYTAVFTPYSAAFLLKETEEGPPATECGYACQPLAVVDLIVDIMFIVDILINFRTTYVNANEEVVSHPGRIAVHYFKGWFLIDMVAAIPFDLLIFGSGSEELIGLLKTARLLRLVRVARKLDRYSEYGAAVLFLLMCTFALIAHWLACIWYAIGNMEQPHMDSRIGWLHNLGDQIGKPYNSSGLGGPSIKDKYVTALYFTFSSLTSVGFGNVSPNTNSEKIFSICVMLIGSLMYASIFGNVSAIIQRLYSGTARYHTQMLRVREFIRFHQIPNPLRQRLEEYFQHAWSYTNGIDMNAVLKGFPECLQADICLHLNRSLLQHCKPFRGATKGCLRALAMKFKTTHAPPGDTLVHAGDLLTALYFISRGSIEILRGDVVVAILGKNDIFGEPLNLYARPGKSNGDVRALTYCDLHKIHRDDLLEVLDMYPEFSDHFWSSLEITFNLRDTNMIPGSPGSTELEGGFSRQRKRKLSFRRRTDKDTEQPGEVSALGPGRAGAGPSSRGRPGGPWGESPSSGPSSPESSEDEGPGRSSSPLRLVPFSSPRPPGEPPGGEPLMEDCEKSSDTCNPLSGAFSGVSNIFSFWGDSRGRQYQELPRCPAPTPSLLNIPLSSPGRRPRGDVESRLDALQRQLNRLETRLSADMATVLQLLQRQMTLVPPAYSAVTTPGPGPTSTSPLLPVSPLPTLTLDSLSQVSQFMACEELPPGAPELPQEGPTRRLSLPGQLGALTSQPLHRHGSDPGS

SMILES	hERG current change (%, negative = inhibition) at 10uM [%]
Cc1ccc(C(=O)Nc2nnc(NC(=S)Nc3ccccc3)s2)cc1	12.1
COc1ccc(CN2CCN(S(=O)(=O)c3ccc(F)cc3)CC2)c(OC)c1OC.O=C(O)C(=O)O	-23.4
N/C(=N\OC(=O)c1ccc(Cl)cc1)c1[nH]ncc1Br	-7.78
O=C(Nc1ccc(Br)cc1)c1cccc(S(=O)(=O)Nc2cnc3ccccc3c2)c1	8.99
COc1ccc(C(=O)NC(=S)Nc2cccc(Cl)c2N2CCOCC2)cc1[N+](=O)[O-]	1.61
FC(F)(F)c1cc(CCN2CCNC[C@H]2Cc2cccc3ccccc23)cc(C(F)(F)F)c1	1.75
N/C(=N\OC(=O)CCCC(=O)O)c1ncc(C(F)(F)F)cc1Cl	14.7
CC(C)OCCCNC(=O)Cn1nc(-c2ccccc2)ccc1=O	-9.86
CC(C)CC(N=C1NC(C)(C)Cc2ccccc21)C(=O)O (stereo not shown)	2.08
C/C=C1\COC(C(=O)NCc2ccccc2)(C(F)(F)F)C=C1C=C1CCCCC1 (stereo not shown)	7.85
CCN(CC)CCOC(=O)c1ccc(NC(=S)NC(=O)/C=C/c2ccco2)cc1	-0.561
Cc1cccc(N(CC(O)CON=C2c3ccccc3-c3ccccc32)S(C)(=O)=O)c1 (stereo not shown)	15.1
O=C(Nc1ccc(OC(F)F)c(Cl)c1)Nc1ccc2c(c1)OCO2	25
Cc1ccc(C(=O)NC(=S)NCC(=O)c2ccccc2)cc1	9.51
CCN(CC(=O)Nc1c(F)cccc1F)C(=O)C1Cc2ccccc2CN1S(=O)(=O)CC (stereo not shown)	-0.108
Cc1cccc(S(=O)(=O)N2CCN(Cc3ccc4c(c3)OCO4)CC2)c1	-35.2
O=C(COC(=O)Cc1ccc(F)cc1)NC1CCCC1	4.84
Cc1ccccc1N(C(=O)c1cccs1)c1nc2ccccc2s1	5.76
CC(CCc1ccccc1)NC(=O)CSc1nc(N)cc(N)n1 (stereo not shown)	-17.5
O=c1cc(/N=C/c2coc3cc(Br)ccc3c2=O)[nH]c(=S)[nH]1	16.1
Cc1ccc(CSCC(=O)N2CCCC2)cc1	14
O=C(OCC(=O)N1CCCC1=O)c1nc(Cl)ccc1Cl	5.78

SMILES	hERG current change (%, negative = inhibition) at 10uM [%]
Cc1csc(NC(=O)c2nn(C)c(C)c2[N+](=O)[O-])n1	11.4
COc1cc(Nc2nc3ccc(Cl)cc3n3cnnc23)cc(OC)c1OC	19.4
CC12CCC(C(=O)Nc3ccc(Br)cn3)(OC1=O)C2(C)C (stereo not shown)	7.13
CC(C)n1ncc(N2CCOCC2)c(Cl)c1=O	12
CN(CC(=O)Nc1ccccc1C(F)(F)F)Cc1c(O)ccc2ccccc12	9.21
C[C@H](NC(=O)C1CC(=O)N(c2ccc(F)cc2)C1)C(=O)N1CCCCC1 (stereo partly shown)	8.53
O=C(NCc1ccccc1)NC(=O)c1ccccc1F	10.9
Cn1nc(-c2ccccn2)nc2c(=O)n(C)c(=O)nc1-2	-3.6
CCc1nc(Sc2nc(C)cc(C)n2)c2oc3ccccc3c2n1	-2.59
COC(=O)COc1ccc(S(=O)(=O)Nc2ccc3c(c2)OCCO3)cc1Cl	2.19
C/C(=N\O)c1cc(Cl)ccc1O	-2.28
CN(C)c1ccc(/C=C(/NC(=O)c2ccccc2)C(=O)N/N=C/c2ccc([N+](=O)[O-])c(O)c2)cc1	-19
COc1ccc(C2=C(CN(C)C)C(c3ccccc3)c3ccccc3O2)cc1.Cl (stereo not shown)	4.6
O=C(NCCCn1ccnc1)/C(=C\c1ccccc1Cl)NC(=O)c1ccccc1	-41.2
O=C(Nn1cnnc1)c1ccc(Cl)cc1	17.7
CCCn1c(N)c(C(=O)CSc2nnc(-c3ccco3)n2Cc2ccccc2)c(=O)[nH]c1=O	0.236
COc1ccc(CNC(=O)C2CCCN(S(=O)(=O)c3ccc(F)cc3)C2)cc1 (stereo not shown)	7.46
C/C(=N\NC(=O)c1ccccc1F)c1cccc(NC(=O)c2ccc(C)cc2)c1	13.1
O=C(NC1(C(F)(F)F)NC(=O)N(Cc2cccnc2)C1=O)c1ccccc1Cl (stereo not shown)	-1.06
O=C(COC(=O)c1cccnc1Cl)c1ccc(F)cc1	15.5
COc1ccc(NC2=NCC(C)S2)cc1 (stereo not shown)	8.03
COc1cccc(CNc2ccc(N3CCC(C)CC3)cc2)c1OC	14.7

SMILES	hERG current change (%, negative = inhibition) at 10uM [%]
COc1ccccc1CCNC(=O)C(=O)c1cn(CC(=O)N2CCOCC2)c2ccccc12	-2.82
O=C(Nc1nccs1)c1ccc(-c2ccccc2Cl)o1	9.26
Cc1cccc(C(=O)OCC(=O)NC(=O)Cc2ccccc2)c1O	13.8
O=C1CC[C@@H](C(=O)N2CSC[C@H]2C(=O)O)N1 ([pGlu]-[Thz]-OH)	15.5
Cc1cc2ncc(-c3cccs3)nc2cc1C	19.3
O=C(c1cccs1)N1CCN(c2nnc(-c3ccccc3)c3ccccc23)CC1	-76.5
CN=C1SC(CC(=O)Nc2ccc(F)cc2F)C(=O)N1/N=C/c1ccc(OC(F)F)c(OC)c1 (stereo not shown)	13.2
COc1cc(/C=N/N2CCCCC2)cc([N+](=O)[O-])c1O	20.8
CCN(C(=O)COC(=O)c1cccnc1Nc1cccc(C(F)(F)F)c1)C1CCS(=O)(=O)C1 (stereo not shown)	-51
Cc1ccc(N(Cc2ccccc2)C(=O)c2ccc(C)c(S(=O)(=O)N3CCOCC3)c2)cc1	-18
COc1ccc(CCNC2=NCCS2)cc1	-2.59
COc1ccc(C(=O)COC(=O)Cn2[nH]c(=O)c3ccccc3c2=O)c(OC)c1	13.3
CCn1cc(C(=O)NCc2ccco2)c(=O)c2cc(S(=O)(=O)N3CC(C)CC(C)C3)ccc21 (stereo not shown)	-7.3
COc1ccccc1N1CCN(/N=C/C=C\c2ccco2)CC1	-2.4
CCC(=O)NC1(C(F)(F)F)C(=O)Nc2c1c(=O)n(C)c(=O)n2C (stereo not shown)	7.22
O=c1c(Cc2ccccc2)c(O)ccn1CCc1cnc[nH]1	27.3
O=C(O)c1cc(-c2ccc3ccccc3c2)nc2ccc(F)cc12	34.9
O=C(CNC(=O)c1ccc(Br)o1)NNC(=O)c1n[nH]c(=O)c2ccccc12	8.88
O=C(c1ccccc1SCc1ccccc1)N1CCCCCC1	-18.3
COc1cc2ccccc2cc1C(=O)Nc1ccccc1N1CCN(S(C)(=O)=O)CC1	6.35
CCOC(=O)C1CCCN(Cc2cn[nH]c2-c2ccc(F)cc2F)C1 (stereo not shown)	-2.03
COC(=O)[C@@H](NC(=O)NC1CCCCC1C)C(C)C (stereo partly shown)	0.868

SMILES	hERG current change (%, negative = inhibition) at 10uM [%]
CSc1ccccc1OCc1cc(C(=O)NCc2csc(C(C)C)n2)no1	-9.57
CCOC(=O)N1CCN(C(=O)CN(c2ccc(OC)c(OC)c2)S(C)(=O)=O)CC1	-6.26
CCOC(=O)CSC1=C(C#N)C(c2sccc2C)C(C(C)=O)=C(C)N1 (stereo not shown)	-1.98
CCOC(=O)c1cnc(SCC(=O)c2ccc(Cl)cc2)nc1N	17.9
Nc1nnc(-c2ccccc2[N+](=O)[O-])o1	10.9
CC(C)c1ccc(/C=C(\NC(=O)c2ccccc2)C(=O)NCCN2CCOCC2)cc1	-61
COc1ccccc1N1C(=O)c2ccc(C(=O)Nc3ccc(F)cc3)cc2C1=O	1.07
Cn1c(SCC(=O)Nc2ccc(NC(=O)c3ccccc3F)cc2)nnc1-c1ccncc1	16.2
Cc1ccc(CNS(=O)(=O)c2cc3c(cc2C)N(C)CCO3)cc1	-12.3
CN1CCN(C(c2ccccc2)c2ccccc2)CC1.Cl	-12.1
Cc1ccc(CNC(=O)CCn2c(=O)oc3ccccc32)cc1	0.00948
CCOP(=O)(c1ccccc1)C1(C#N)CC1 (stereo not shown)	9.74
CCc1c(C#N)c(SCCC(=O)Nc2ccc(F)cc2)nc2c1C(=O)CC(C)(C)C2	10.4
CCC(C)NCC(O)COCc1ccc(Cl)cc1.Cl (stereo not shown)	-9.92
O=C(NCCNC(=O)c1ccc(F)cc1)c1ccc(F)cc1	0.397
CNc1cc(-n2nc(C)cc2-c2ccccc2)ncn1	11
CC(C)CN(C(=O)c1ccc(=O)n(C)n1)c1c(N)n(Cc2ccccc2)c(=O)[nH]c1=O	7.23
Nn1c(SCC(=O)Nc2cccnc2Cl)nnc1-c1ccccc1	7.24
CCC1=C(OC(=O)N(CC)CC)N2C(=O)OC(=NCC(=O)OC)[C@]2(Cc2ccccc2)[C@H]2C1=CC[C@H]1C(=O)NC(=O)[C@H]12	9.2
COCCCNC(=O)COc1cc(C)c(Cl)c(C)c1	-3.99
COc1cc(NC(=O)C(C)Oc2ccccc2)c(C(=O)O)cc1OC (stereo not shown)	16.1
CC(C)C(=O)Nc1ccnc(-c2cccnc2)n1	-1.77
